# Test results reported in PubChem BioAssay (NCATS).
# This list was built around the results that the source calls inconclusive (neither active nor inactive); the mix of calls is not that of the screen. No potency is given beside an inconclusive call; the fits are too rough. For part of these data: A note “side channel” means that the fit belongs to a control or component signal, not to the main read-out. Activity calls are given as the source filed them. Unless noted, calls follow the shape of the dose curve; as a rule, active = well fitted curve in the direction sought with a large enough effect; inconclusive = small, poorly fitted or top-dose-only effect, or another doubt; inactive = no such curve, though single readings can be large; an effect the other way counts as inactive or inconclusive.
# Experiments:
# [1] = target: Ubiquitin carboxyl-terminal hydrolase 1 (Homo sapiens) (UniProt O94782); assay: Inhibitors of USP1/UAF1: Pilot qHTS (AID 504865);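 also: rhodamine fluorescence freed from ubiquitin-rhodamine substrate followed over time; nearly all actives have a fitted effect of over 35% in size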
# Chain of UniProt O94782 (O94782 whole entry, looked up): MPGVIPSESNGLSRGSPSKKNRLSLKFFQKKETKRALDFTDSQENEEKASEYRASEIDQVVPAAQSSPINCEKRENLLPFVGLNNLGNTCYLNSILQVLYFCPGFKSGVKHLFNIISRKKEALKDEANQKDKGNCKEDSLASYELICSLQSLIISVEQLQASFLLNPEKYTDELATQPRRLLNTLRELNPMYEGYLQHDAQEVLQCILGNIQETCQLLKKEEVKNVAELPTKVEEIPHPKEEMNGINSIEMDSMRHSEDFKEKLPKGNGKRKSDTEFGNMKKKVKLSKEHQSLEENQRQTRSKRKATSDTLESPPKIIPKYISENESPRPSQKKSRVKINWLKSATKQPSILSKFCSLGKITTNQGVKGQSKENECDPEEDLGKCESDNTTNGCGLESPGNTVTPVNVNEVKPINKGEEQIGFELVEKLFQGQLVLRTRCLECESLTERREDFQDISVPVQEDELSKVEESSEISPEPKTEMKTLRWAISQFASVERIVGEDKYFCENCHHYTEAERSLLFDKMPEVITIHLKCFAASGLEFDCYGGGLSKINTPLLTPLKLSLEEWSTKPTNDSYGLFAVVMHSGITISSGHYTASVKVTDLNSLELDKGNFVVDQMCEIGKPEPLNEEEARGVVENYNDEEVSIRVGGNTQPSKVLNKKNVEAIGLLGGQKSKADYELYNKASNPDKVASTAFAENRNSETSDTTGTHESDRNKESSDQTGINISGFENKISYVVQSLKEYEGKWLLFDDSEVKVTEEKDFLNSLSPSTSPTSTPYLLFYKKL
# In short: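 Kinetic fluorescence assay: 1nM USP1/UAF1, 15 min compound preincubation, then 150nM Ub-Rho; 480/540 nm.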
# [2] = qHTS for Inhibitors of ATXN expression: Validation of Cytotoxic Assay (AID 588349);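 also: cells exposed to compound for 72 hr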
# In short: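 HEK293, compound dose series, 72 hr / 37 degrees C; viability via CellTiter Glo (intracellular ATP).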
# [3] = qHTS for Inhibitors of ATXN expression: Validation (AID 588378); also: nearly all actives have a fitted effect of over 75% in size
# In short: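 Validation of ATXN2 expression inhibitors uses a cell-based luciferase fusion reporter in HEK293 cells, with 24 h compound exposure and paired viability (fluorescence) and reporter (luminescence) end-point reads.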
# [4] = target: DNA dC->dU-editing enzyme APOBEC-3G (Homo sapiens) (UniProt Q9HC16); assay: qHTS for inhibitors of Vif-A3G interactions: Validation (AID 588379); settings: Vif-A3G protein interaction assay
# Chain of UniProt Q9HC16 (Q9HC16 whole entry, looked up): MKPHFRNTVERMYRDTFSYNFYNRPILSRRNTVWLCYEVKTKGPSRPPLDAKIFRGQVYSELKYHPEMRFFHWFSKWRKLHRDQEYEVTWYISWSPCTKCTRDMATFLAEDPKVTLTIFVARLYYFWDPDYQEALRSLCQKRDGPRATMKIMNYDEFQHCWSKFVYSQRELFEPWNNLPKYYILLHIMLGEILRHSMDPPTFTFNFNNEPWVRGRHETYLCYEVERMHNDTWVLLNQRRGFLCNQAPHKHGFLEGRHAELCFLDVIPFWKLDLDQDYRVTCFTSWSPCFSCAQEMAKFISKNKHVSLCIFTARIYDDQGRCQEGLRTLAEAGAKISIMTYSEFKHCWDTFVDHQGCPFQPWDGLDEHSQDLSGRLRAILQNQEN
# In short: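 HeLa cells stably expressing Vif and A3G-eYFP, 700 cells/well, incubated overnight at 37 deg C, then exposed to compound overnight at 37 deg C. Inhibition of Vif-mediated degradation read as increased yellow fluorescence (Ex 488/Em 500-530) by laser-scanning cytometry.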
# [5] = target: Estrogen receptor (Homo sapiens) (UniProt P03372); assay: qHTS assay for small molecule agonists of estrogen receptor alpha signaling (AID 588514; calls by dose curve; also: nearly all actives have a fitted effect of over 70% in size); settings: ER-alpha-UAS-bla HEK293, beta-lactamase ratio, 18 h; series mostly up to 76.8 µM
# Chain of UniProt P03372 (P03372 whole entry, looked up): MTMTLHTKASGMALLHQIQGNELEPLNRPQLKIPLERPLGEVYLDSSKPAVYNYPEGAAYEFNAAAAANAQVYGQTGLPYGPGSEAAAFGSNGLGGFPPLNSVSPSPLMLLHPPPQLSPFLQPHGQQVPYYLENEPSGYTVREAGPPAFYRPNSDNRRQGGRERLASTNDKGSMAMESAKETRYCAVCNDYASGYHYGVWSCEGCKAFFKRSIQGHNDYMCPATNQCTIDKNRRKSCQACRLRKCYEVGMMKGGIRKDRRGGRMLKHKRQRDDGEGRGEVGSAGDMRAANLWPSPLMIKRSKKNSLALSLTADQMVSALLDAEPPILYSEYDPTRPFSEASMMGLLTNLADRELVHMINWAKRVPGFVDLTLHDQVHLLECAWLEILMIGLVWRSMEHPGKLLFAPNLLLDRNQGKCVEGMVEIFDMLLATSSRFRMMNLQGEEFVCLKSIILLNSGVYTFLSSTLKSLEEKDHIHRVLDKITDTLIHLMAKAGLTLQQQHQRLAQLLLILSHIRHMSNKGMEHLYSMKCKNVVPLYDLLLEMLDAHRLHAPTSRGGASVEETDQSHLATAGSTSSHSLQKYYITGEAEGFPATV
# In short: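 Reporter-gene assay. […] controls beta-lactamase in HEK 293 GripTite cells; after 18 hrs with compound, CCF4 substrate is added for 2 hrs and fluorescence is read.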
# Potency is read from the fitted curve at half-maximal effect; tags tell the direction and shape of the fitted curve or compound fluorescence and quenching.
compound,measurement,setting,value
CCCc1cc(C(N)=S)ccn1,Potency,[1],"inconclusive [inhibitor, partial curve, poor fit]"
Clc1ccc2c(c1)C(N1CCNCC1)=Nc1ccccc1O2,Potency,[1],"inconclusive [inhibitor, partial curve, poor fit]"
same,Potency,[2],"inconclusive [cytotoxic, partial curve]"
same,Potency,[3],"inconclusive [inhibitor, partial curve, poor fit]"
[O]=[Bi][O]C(=O)[O][Bi]=[O],Potency,[1],inactive
CCOC(=O)C1=C(C)NC(C)=C(C(=O)OC)C1c1cccc([N+](=O)[O-])c1 (stereo not given),Potency,[1],"inconclusive [inhibitor, partial curve, poor fit]"
same,Potency,[2],"inconclusive [cytotoxic, partial curve, poor fit]"
CCCCCCC[N+](CC)(CC)CCCCc1ccc(Cl)cc1,Potency,[1],"inconclusive [inhibitor, single point]"
CCN(CC)CCCN(c1ccccc1)C1Cc2ccccc2C1,Potency,[1],"inconclusive [inhibitor, partial curve, poor fit]"
same,Potency,[2],"inconclusive [cytotoxic, single point]"
same,Potency,[3],"inconclusive [inhibitor, partial curve, poor fit]"
CCCCOc1cc(C(=O)NCCN(CC)CC)c2ccccc2n1,Potency,[1],inactive
COc1cc(/C=C/C(=O)CC(=O)/C=C/c2ccc(O)c(OC)c2)ccc1O,Potency,[1],active: 12.6 µM
same,Potency,[4],"inconclusive [inhibitor, single point]"
same,Potency,[5],"inconclusive [fluorescent, side channel, single point]"
